Results reported in PubChem BioAssay AID1508623 (National Center for Advancing Translational Sciences (NCATS), 2021).
Screen size: about 48,000 compounds; about 450 (0.94%) were called active. Roughly 19% stayed inconclusive and do not appear here. Calls follow the shape of the dose curve; as a rule, active = well fitted inhibition curve with a large enough effect; inconclusive = small, poorly fitted or top-dose-only effect; inactive = no such curve, though single readings can be large or run the other way. The list shows a part of the results.

Assay: Primary qHTS for Identification of Small Molecule Inhibitors of Huntingtin Promoter Activity; also: nearly all actives have a fitted effect of over 50% in size
Settings: HEK293 HTT promoter firefly luciferase reporter (activity 0% = vehicle and -100% = no light), 24 h; series mostly up to 57.5 µM; activity change, negative = inhibition: at the top concentration
Outline: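 Firefly luciferase signal from promoter-reporter HEK293 cells was scaled between vehicle (0%) and zero RLU (-100%). Compounds were tested at final concentrations of up to 57.5 uM over 24 h at 37 degrees C. PTC124 at 50 uM final served as control inhibitor.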

Activity change, negative = inhibition, inactive:
COc1ccc(OCC(=O)N2CCN(C(=O)c3cc(OC)c(OC)c(OC)c3)CC2)cc1 0.257%, CCOc1ccc(C2N3CC4(C(C)C)CN2CC(C(C)C)(C3)C4=O)cc1OC (stereo unspecified) -13.1%, CCOc1ccccc1NC(=O)N(C)CCc1c(C)nn(CC)c1C 0.509%, Cc1ccc(COc2ccc3oc(-c4ccccc4)c(C(=O)O)c3c2)cc1 -5.22%, COc1ccc(-n2nc(C(=O)Nc3ccc(Br)cc3C)c3c4ccccc4n(C)c3c2=O)cc1 -22.2%, CCOc1ccc(C2C=C(c3cccc(OC)c3)Nc3nnnn32)cc1 (stereo unspecified) -28%, COc1ccc(C(=O)N2CC(=O)Nc3ccc(C)cc3C2c2ccccc2)cc1OC (stereo unspecified) -19.2%, O=C(COc1ccccc1)NCC(c1cccs1)S(=O)(=O)c1ccc(Cl)cc1 (stereo unspecified) -31.5%, COc1cccc(C(=O)Nc2ccc(-n3nncc3-c3ccc(Br)cc3)cc2)c1OC -17.4%, Cc1cc(C)n2c(Nc3ccccc3C)c(-c3cccs3)nc2n1 -3.87%, Cc1c(C2=CCN(S(=O)(=O)c3ccc(Br)cc3)CC2)c2ccccc2n1CC(=O)N1CCCC1 -1.29%, Cc1ccc(CNC(=O)CSc2c3c(nc4ccc(Cl)cc24)CCCC3)cc1 -12.2%, Cc1cccc(Nc2nc(C)nc(N)c2S(=O)(=O)c2ccccc2)c1 -8.8%, CCOc1ccc(NC(=O)CN(Cc2ccccc2)S(=O)(=O)c2ccc(Cl)cc2)cc1 -43.5%, COc1ccc2nc3oc(C(=O)Nc4cccc(C(F)(F)F)c4)cc3cc2c1 -2.34%, CCc1c(C)sc2c1CCN(C(=O)Nc1ccccc1C(=O)OC)C2c1ccc(F)cc1 (stereo unspecified) -20.3%, CCNC(=O)c1c(NC(=O)COc2ccc(F)cc2)sc2c1CCCC2 -3.57%, O=C(Nc1ccc(Br)cc1)N1CCC(CN2CCCC2)CC1 -13%, COc1ccc(NC(=O)CSc2c3c(nc4ccc(Cl)cc24)CCCC3)cc1Cl -31.5%, CCOc1ccc(C2C(C(=O)Nc3ccc(OC)cc3)=C(C)Nc3nc(SCc4ccc(Cl)cc4)nn32)cc1 (stereo unspecified) -7.5%, Cc1ccccc1NC(=O)CS(=O)(=O)c1cccc2nsnc12 -18.7%, Cc1c(Cl)cccc1NC(=O)c1ccc(NC(=O)N2CCSc3ncccc32)cc1 -2.78%, CCCc1ccc(OCC(=O)Nc2scc(-c3cccs3)c2C(=O)OC)cc1 -19.6%, NC(=O)NC1NC(=O)NC1=O (stereo unspecified) 8.62%, Cc1ccc(CNC(=O)c2sc3nc4n(c(=O)c3c2C)CCCC4)cc1 29.6%, COc1cc(CNC(=O)CSCc2nc3cccnc3n2C2CCCCC2)cc(OC)c1OC -0.796%, CC(=O)Nc1ccc(OCCOCCOc2ccc(NC(C)=O)cc2)cc1 -8.7%, CCOc1cc(C#N)c(NC(=O)c2cccc(S(=O)(=O)N3CCOCC3)c2)cc1OCC 1.43%, O=C(CCNS(=O)(=O)c1ccc2c(c1)CCCC(=O)N2)NCc1ccccc1Cl -19.1%, CCC(=O)N1CCc2cc(CNC(=O)Nc3ccccc3Cl)ccc21 -10.3%, COc1cccc(NC(=O)CN(C)S(=O)(=O)c2cccs2)c1 29.3%, CC1CCN(C(=O)CSc2nc(-c3ccc(C(C)C)cc3)no2)CC1 -10.1%, CC(C(=O)NCc1ccccc1)N1Cc2ccccc2C1=O (stereo unspecified) -12%, O=C(Nc1ccc([N+](=O)[O-])cc1)Nc1ccc([N+](=O)[O-])cc1 -2.99%, CCCS(=O)(=O)N1CC(=O)N(c2ccccc2F)C(C)(C(=O)NC2CCCCCC2)C1 (stereo unspecified) 0.259%, COc1ccc(CCNC(=O)c2cc(C)nc3c2c(C)nn3-c2ccccc2)cc1OC -16.3%, Cn1c(CNC(=O)CSc2n[nH]c(-c3ccccc3)n2)nc2ccccc21 3.9%, CC(C)(C)C1CCc2c(sc(NC(=O)Cn3nnc(-c4cccc(C(F)(F)F)c4)n3)c2C#N)C1 (stereo unspecified) -18.8%, CCCCCOC(=O)CSc1nc2sc3c(c2c(=O)n1Cc1ccccc1)CC(C)(C)OC3 -11.6%, CCCCc1nn2c(=O)cc(COC(=O)c3ccc(NC(=O)c4cccs4)cc3)nc2s1 -23.1%, CCN1CCSc2ccc(C(=O)NCc3cccc(F)c3)cc21 -13.7%, O=C(Cn1c(=O)n(-c2ccc(Cl)cc2)c(=O)c2c3c(sc21)CCC3)c1ccc(F)cc1 2.79%, COc1ccccc1Cn1c(CNS(=O)(=O)c2ccc3c(c2)CCCC3)nc2cccnc21 -19.7%, COc1ccccc1N1CCN(C(=O)CSc2nc3ccccc3nc2Cc2ccc(F)cc2)CC1 1.31%, Cc1csc2nc(COc3ccc(NC(=O)COc4ccccc4F)cc3)cc(=O)n12 7.35%, CCC(=O)N1c2ccccc2CC1C(=O)NCCN1CCN(c2cccc(C)c2C)CC1 (stereo unspecified) -14.6%, Cc1ccc(-c2nc3ccccc3o2)cc1NC(=O)c1cccc2c(Cl)cccc12 -6.44%, Cc1cccc(Nc2nc(-c3ccccc3)c3cc(C)ccc3n2)c1 -18.6%, Cc1ccccc1NCc1cccn1-c1nnc(N2CCOCC2)s1 -22.1%, Cc1ccc(NC(=O)CSc2nnc3[nH]c(=O)cc(C)n23)cc1Cl -2.74%, Cc1sc2c(c1C)c(=O)n(-c1ccccc1)c(=O)n2CC(=O)c1ccc(Cl)cc1 -16%, COc1cccc(CNC(=O)CCc2nnc3n(CC(C)C)c(=O)c4ccccc4n23)c1 -7.3%, CC(C)CC(=O)N1CC(=O)Nc2ccc(F)cc2C1c1ccccc1 (stereo unspecified) -8.32%, CCC(Sc1nc2c(sc3ccccc32)c(=O)n1CCCC(=O)NC1CCCC1)C(=O)Nc1cccc(OC)c1 (stereo unspecified) -24.8%, NCCCC(N)(C(=O)O)C(F)F (stereo unspecified), CC(C)OCCCn1c(SCC(=O)Nc2ccc(F)cc2)nc2c(sc3ccccc32)c1=O -14.3%, Cc1ccc(OCCSc2nc3ccc(NC(=O)c4ccc5c(c4)OCO5)cc3s2)cc1 -2.91%, O=C(Nc1ccc(F)cc1)C1CCN(c2nc3ccccc3n3cccc23)CC1 -0.156%, COc1ccc(NC(=O)c2cc3c(=O)n(C)c4ccccc4c3s2)cc1Cl -4.99%, CCOc1ccc(-c2cc3c(=O)n(CC(=O)NCc4ccc(OC)cc4)ccn3n2)cc1 82.1%, CCCc1ccc(OC(=O)CSc2nnc(-c3cccs3)o2)cc1 -4.8%, CCS(=O)(=O)N1CCc2cc(C(=O)Nc3cccc(C)c3C)ccc21 23.6%, CSc1ccc(CCNC(=O)CCn2c(=O)c3cccn3c3cccnc32)cc1 -0.476%, Cc1cccc(NC(=O)CSc2nnc(N)s2)c1 6.08%, O=C(NC1(C(F)(F)F)NC(=O)N(CCc2ccccc2)C1=O)c1ccccc1Cl (stereo unspecified) -7.18%, Cc1nc(-n2nc(C)c(Cc3ccccc3Cl)c2C)sc1C(=O)N1CCC(C)CC1 -0.881%, O=C(CCn1cccn1)NCc1ccc(Cl)cc1 -1.5%, CCOC(=O)C(CC)Sc1ncnc2sc3c(c12)CCCC3 (stereo unspecified) -20.2%, Cc1cccc(-n2ncc(C(=O)N3CCc4ccccc4C3)c2C2CCN(C(=O)OC(C)(C)C)CC2)c1 0.16%, Cc1nn2c(=O)cc(COC(=O)c3cccc(NC(=O)COc4ccc(C)c(C)c4)c3)nc2s1 -4.49%, Cc1c(-c2nsc(NC(=O)c3cccs3)n2)nnn1-c1ccc(Cl)cc1 22.3%, N#Cc1c[nH]n2c(NC3CCCCC3)c(-c3ccccc3F)nc12 -11.4%, CCSc1ncc(Cl)c(C(=O)N(Cc2ccccc2Cl)C2CCS(=O)(=O)C2)n1 (stereo unspecified) -9.89%, O=C(C1CCN(S(=O)(=O)c2cccs2)CC1)N1CCN(c2cccc(Cl)c2)CC1 -4.96%, CSc1ncc2c(n1)-c1ccccc1N(Cc1ccc(F)cc1)S2(=O)=O -17%, COC(=O)c1nnn(CC(=O)Nc2cc(F)ccc2F)c1C(=O)OC -1.78%, CCC1Oc2ccc(C)cc2N(CC(=O)NCCc2ccccc2)C1=O (stereo unspecified) -17.1%, CCOC(=O)c1cnc2ccc(OC(F)(F)F)cc2c1Nc1ccccc1C(=O)O -7.54%, Cc1ccc(NC(=O)CCCN2C(=O)COc3ccc(C)cc32)c(Cl)c1 5.64%, COc1cccc(/C=C/c2nc(C#N)c(N3CCCCCC3)o2)c1 -9.67%, CCOC(=O)c1cnn2c(C(F)(F)F)cc(-c3ccc(Br)cc3)nc12 -6.97%, O=C(Nc1ccc(OCc2cc(=O)n3c4c(sc3n2)CCCC4)cc1)c1ccc(F)cc1 -19.6%, COC(=O)Cc1c(C)c2ccc3c(c2oc1=O)CN(Cc1ccc(C)cc1)CO3 -5.8%, COc1ccc(-n2nnnc2SCC(=O)NCCc2ccccc2)cc1 -3.84%, CCOc1ccc(CCNC(=O)CCn2c(=O)c3cccn3c3ccc(F)cc32)cc1 -8.8%, Cc1ccc(NC(=O)Cn2nc(C(F)(F)F)c3c2CCC3)cc1C -28.7%, CCOc1ccc(C(=O)NCCc2sc(-c3cccc(F)c3)nc2C)cc1OCC -32.6%, Cc1ccc(C2=NN(CCC(=O)NCCc3cccc(C)c3)C(=O)CC2)cc1 -18.7%, CC(=O)Nc1cccc(-c2nnc(SCC(=O)c3ccc([N+](=O)[O-])cc3)o2)c1 -24.1%, COc1ccc(OC)c(CNC(=O)c2cnc(N(C)C)nc2)c1 -13.8%, CCOc1ccccc1/C=C/c1onc(C)c1S(=O)(=O)N1CCC(C(=O)N2CCCCC2)CC1 -11.8%, Cc1ccc(-n2nc(C)c3c(C(=O)Nc4ccc(C)cc4Cl)cc(C)nc32)cc1 -5.41%, CCOC(=O)CSc1nc(-c2ccc(OC)cc2)cc(C(F)(F)F)c1C#N -17.2%, COc1ccc(-n2nc(C(=O)N3CCN(c4cccc(C)c4)C(C)C3)c3c4ccccc4n(C)c3c2=O)cc1Cl (stereo unspecified) -9.89%, COc1cccc(-n2c(=O)c3c4c(sc3n(Cc3ccccc3C#N)c2=O)CCCC4)c1 9.2%, Cc1ccccc1-c1noc(-c2ccc(NC3CCCC3)c([N+](=O)[O-])c2)n1 -6.83%, O=S(=O)(c1ccc2nc(Nc3ccc(Br)cc3F)ccc2c1)N1CCCC1 3.9%, CCc1nnc(NC(=O)c2nc(SCc3ccc(F)cc3)ncc2Cl)s1 -16.2%, O=C(O)/C=C\C(=O)O -2.15%, CCOc1ccc(OCC)c(NS(=O)(=O)c2ccc3c(c2)CCCN3C(C)=O)c1 -21.3%, CCCCn1c(C2CC(=O)N(c3ccc(OCC)cc3)C2)nc2ccccc21 (stereo unspecified) -13.3%
